The assay addresses T1, C-terminal portion of AIP1 containing the DUF724 domain (Arabidopsis thaliana) (UniProt Q8H0V4).
T1 sequence: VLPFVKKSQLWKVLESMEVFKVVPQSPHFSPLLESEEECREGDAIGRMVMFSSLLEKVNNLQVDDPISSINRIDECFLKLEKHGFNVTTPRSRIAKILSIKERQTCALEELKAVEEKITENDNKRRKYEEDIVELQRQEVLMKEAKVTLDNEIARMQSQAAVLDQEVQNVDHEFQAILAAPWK
In words: two-hybrid; S. cerevisiae PJ694 co-transformed; selection on -leu/-trp/-his or -leu/-trp/-his/-ade, 3 days at 30 °C; C-terminal portion of AIP1 (DUF724) fused with GAL4 AD against GAL4 DBD fusions (Additional File 4); Additional File 10 calls the AIP1 portion the bait.

Results are given in words; binding and its absence hold for the method and conditions named. Some entries that bind do so weakly or less than the wild type.

B1: MCM7 (protein, UniProt P43299 1-716)
chain: MKDHDFDGDKGLAKGFLENFADANGRSKYMEILQEVSNRKIRAIQVDLDDLFNYKDESEEFLGRLTENTRRYVSIFSAAVDELLPEPTEAFPDDDHDILMTQRADDGTDNPDVSDPHQQIPSEIKRYYEVYFKAPSKGRPSTIREVKASHIGQLVRISGIVTRCSDVKPLMAVAVYTCEDCGHEIYQEVTSRVFMPLFKCPSSRCRLNSKAGNPILQLRASKFLKFQEAKMQELAEHVPKGHIPRSMTVHLRGELTRKVSPGDVVEFSGIFLPIPYTGFKALRAGLVADTYLEATSVTHFKKKYEEYEFQKDEEEQIARLAEDGDIYNKLSRSLAPEIYGHEDIKKALLLLLVGAPHRQLKDGMKIRGDVHICLMGDPGVAKSQLLKHIINVAPRGVYTTGKGSSGVGLTAAVMRDQVTNEMVLEGGALVLADMGICAIDEFDKMDESDRTAIHEVMEQQTVSIAKAGITTSLNARTAVLAAANPAWGRYDLRRTPAENINLPPALLSRFDLLWLILDRADMDSDLELAKHVLHVHQTEESPALGFEPLEPNILRAYISAARRLSPYVPAELEEYIATAYSSIRQEEAKSNTPHSYTTVRTLLSILRISAALARLRFSESVAQSDVDEALRLMQMSKISLYADDRQKAGLDAISDTYSIIRDEAARSKKTHVSYANALNWISRKGYSEAQLKECLEEYAALNVWQIDPHTFDIRFI
As for B1, the binding entry is “no binding”.

B2: MCM3 (protein, UniProt Q9FL33 1-776)
chain: MDVPEETRLRHKRDFIQFLDSMYMEEIKALVHQKRHRLIINISDIHHHFREVASRILKNPNEYMQSFCDAATEATRAIDPKYLKEGELVLVGFEGYFVSRVVTPRELLSDFIGSMVCVEGIVTKCSLVRPKVVKSVHFCPSTGEFTNRDYRDITSHAGLPTGSVYPTRDDKGNLLVTEYGLCKYKDHQTLSIQEVPENAAPGQLPRSVDVIAEDDLVDSCKPGDRVSVFGIYKALPGKSKGSVNGVFRTILIANNIALLNKEANAPIYTKQDLDNIKNIARRDDAFDLLARSLAPSIYGHAWIKKAVVLLMLGGVEKNLKNGTHLRGDINMMMVGDPSVAKSQLLRAIMNIAPLAISTTGRGSSGVGLTAAVTSDQETGERRLEAGAMVLADKGIVCIDEFDKMNDQDRVAIHEVMEQQTVTIAKAGIHASLNARCSVVAAANPIYGTYDRSLTPTKNIGLPDSLLSRFDLLFIVLDQMDAGIDSMISEHVLRMHRYKNDRGEAGPDGSLPYAREDNAESEMFVKYNQTLHGKKKRGQTHDKTLTIKFLKKYIHYAKHRITPKLTDEASERIAEAYADLRNAGSDTKTGGTLPITARTLETIIRLATAHAKMKLSSEVTKADAEAALKLMNFAIYHQELTEMDDREQEERQREQAEQERTPSGRRGNQRRNNEDGAENDTANVDSETADPMEVDEPSVEQFSGTVSAARIETFERVFGQHMRTHRLDDISIADIETVVNNNGVGASRYSADEIMALLEKLQDDNKVMISDGKVHII
As to B2, the binding result is listed as “no binding”.

B3: LHP1, full-length CDS (protein, UniProt Q946J8 1-445)
chain: MKGASGAVKKKPQVLNEAGEAETAVETVGESRKISGDGGFGSDDGGGGGGGGSGESILREIGDDRPTEDGDEEEEEDEDEDDGGDEEDEEGEGEGGQEERPKLDEGFYEIEAIRRKRVRKGKVQYLIKWRGWPETANTWEPLENLQSIADVIDAFEGSLKPGKPGRKRKRKYAGPHSQMKKKQRLTSTSHDATEKSDSSTSLNNSSLPDIPDPLDLSGSSLLNRDVEAKNAYVSNQVEANSGSVGMARQVRLIDNEKEYDPTLNELRGPVNNSNGAGCSQGGGIGSEGDNVRPNGLLKVYPKELDKNSRFIGAKRRKSGSVKRFKQDGSTSNNHTAPTDQNLTPDLTTLDSFGRIARMGNEYPGVMENCNLSQKTKIEELDITKILKPMSFTASVSDNVQEVLVTFLALRSDGKEALVDNRFLKAHNPHLLIEFYEQHLKYNRTP
B3: the binding result is recorded as “binds weakly”.

B4: TCP24 (protein, UniProt Q9C758 1-324)
chain: MEVDEDIELQKHQEQQSRKLQRFSEDNTGLMRNWNNPSSRIIRVSRASGGKDRHSKVLTSKGLRDRRIRLSVATAIQFYDLQDRLGFDQPSKAVEWLINAASDSITDLPLLNTNFDHLDQNQNQTKSACSSGTSESSLLSLSRTEIRGKARERARERTAKDRDKDLQNAHSSFTQLLTGGFDQQPSNRNWTGGSDCFNPVQLQIPNSSSQEPMNHPFSFVPDYNFGISSSSSAINGGYSSRGTLQSNSQSLFLNNNNNITQRSSISSSSSSSSPMDSQSISFFMATPPPLDHHNHQLPETFDGRLYLYYGEGNRSSDDKAKERR
Take B4: the binding entry is recorded as “no binding”.

B5: C-terminal region of ABAP1 containing the BTB-POZ domain (aa 401-737) (domain or fragment, UniProt B7U179 401-737)
chain: LDVKTGSVQHNAAFALYGLADNEENVADFIKAGGIQKLQDDNFTVQPTRDCVVRTLKRLQNKIHGPVLNQLLYLMRTAEKTVQIRIALALAHLCDPKDGKLIFIDNNGVEFLLELLYFSSNKQQRYSSSALYELAKKATSFAPEDSAPCSPTQQVFLGEKFVNNPTMSDVTFLIDGKQFYAHKIGLVASSDIFRAMFDGLYKERNAQNVEIPNIRWEVFELMMKFIYSGRINIAKHLAKDLLVAADQYLLEGLKRQCEYTIAQEICLDNIPEMYELADTFNASALRRACTLFVLEHFTKLSSQLWFAKFVKQIIPEIRSYMTDILTRPVEASPPTVV
B5: the binding entry is on record as “no binding”.

B6: Armadillo BTB Arabidopsis Protein 1 (ABAP1), full-length CDS (protein, UniProt B7U179 1-737)
chain: MIISKSFKAPLKFSVKSSTAPVISNHPPMENHPKRQRTTRLAARNLKRKLSHNTDGAPIVTQLIDIDDEPIDLVVAIRRHVEVLNSSFSDPDFDHEAVKEAAADIADLAKIDENVEIIVENGAIPALVRYLESPLVVCGNVPKSCEHKLEKDCALALGLIAAIQPGYQQLIVDAGAIVPTVKLLKRRGECGECMFANAVIRRAADIITNIAHDNPRIKTNIRVEGGIAPLVELLNFPDVKVQRAAAGALRTVSFRNDENKSQIVELNALPTLVLMLQSQDSTVHGEAIGAIGNLVHSSPDIKKEVIRAGALQPVIGLLSSTCLETQREAALLIGQFAAPDSDCKVHIAQRGAITPLIKMLESSDEQVVEMSAFALGRLAQDAHNQAGIAHRGGIISLLNLLDVKTGSVQHNAAFALYGLADNEENVADFIKAGGIQKLQDDNFTVQPTRDCVVRTLKRLQNKIHGPVLNQLLYLMRTAEKTVQIRIALALAHLCDPKDGKLIFIDNNGVEFLLELLYFSSNKQQRYSSSALYELAKKATSFAPEDSAPCSPTQQVFLGEKFVNNPTMSDVTFLIDGKQFYAHKIGLVASSDIFRAMFDGLYKERNAQNVEIPNIRWEVFELMMKFIYSGRINIAKHLAKDLLVAADQYLLEGLKRQCEYTIAQEICLDNIPEMYELADTFNASALRRACTLFVLEHFTKLSSQLWFAKFVKQIIPEIRSYMTDILTRPVEASPPTVV
B6: the binding result is reported as “binds”.

B7: MCM2 (protein, UniProt Q9LPD9 1-936)
chain: MAGENSDNEPSSPASPSSAGFNTDQLPISTSQNSENFSDEEEAAVDTQVIRDEPDEAEDEEEEEGEDLFNDTFMNDYRKMDENDQYESNGIDDSVDDERDLGQAMLDRRAADADLDARENRLANRKLPHLLHDNDSDDWNYRPSKRSRTTVPPRGNGGDPDGNPPSSPGVSQPDISMTDQTDDYQDEDDNDDEAEFEMYRIQGTLREWVMRDEVRRFIAKKFKDFLLTYVKPKNENGDIEYVRLINEMVSANKCSLEIDYKEFIHVHPNIAIWLADAPQPVLEVMEEVSEKVIFDLHPNYKNIHTKIYVRVTNLPVNDQIRNIRQIHLNTMIRIGGVVTRRSGVFPQLQQVKYDCNKCGAVLGPFFQNSYSEVKVGSCSECQSKGPFTVNVEQTIYRNYQKLTIQESPGTVPAGRLPRHKEVILLNDLIDCARPGEEIEVTGIYTNNFDLSLNTKNGFPVFATVVEANYVTKKQDLFSAYKLTQEDKTQIEELSKDPRIVERIIKSIAPSIYGHEDIKTALALAMFGGQEKNIKGKHRLRGDINVLLLGDPGTAKSQFLKYVEKTGQRAVYTTGKGASAVGLTAAVHKDPVTREWTLEGGALVLADRGICLIDEFDKMNDQDRVSIHEAMEQQSISISKAGIVTSLQARCSVIAAANPVGGRYDSSKSFAQNVELTDPILSRFDILCVVKDVVDPVTDEMLAEFVVNSHFKSQPKGGKMEDSDPEDGIQGSSGSTDPEVLPQNLLKKYLTYSKLYVFPKLGELDAKKLETVYANLRRESMNGQGVSIATRHLESMIRMSEAHARMHLRQYVTEEDVNMAIRVLLDSFISTQKFGVQRTLRESFKRYITYKKDFNSLLLVLLKELVKNALKFEEIISGSNSGLPTIEVKIEELQTKAKEYDIADLRPFFSSTDFSKAHFELDHGRGMIKCPKRLITW
B7: the binding result is “no binding”.

B8: ARIA, full-length CDS (protein, UniProt B9DHT4 1-710)
chain: MDQQPERREGRSFPERKGQKRKLEEGAAAVEDREISAVSTDGGQALLSEVAAQVSVLNSAFSWQESDRAAAKRATQVLAELAKNEDLVNVIVDGGAVPALMTHLQAPPYNDGDLAEKPYEHEVEKGSAFALGLLAIKPEYQKLIVDKGALPHLVNLLKRNKDGSSSRAVNSVIRRAADAITNLAHENSSIKTRVRVEGGIPPLVELLEFSDSKVQRAAAGALRTLAFKNDDNKNQIVECNALPTLILMLGSEDAAIHYEAVGVIGNLVHSSPHIKKEVLTAGALQPVIGLLSSCCPESQREAALLLGQFASTDSDCKVHIVQRGAVRPLIEMLQSPDVQLKEMSAFALGRLAQDAHNQAGIAHSGGLGPLLKLLDSRNGSLQHNAAFALYGLADNEDNVSDFIRVGGIQKLQDGEFIVQATKDCVSKTLKRLEEKIHGRVLRHLLYLMRISEKSIQRRVALALAHLCSPEDQRTIFIDDNGLELLLGLLGSLNTKQQLDGAAALYKLANKSMALSPVDAAPPSPTQRVYLGEQYVNNATLSDVTFLVEGRTFYAHRICLLASSDAFRAMFDGGYREKDARDIEIPNIKWEVFELMMRFIYTGSVDITNEISKDLLRAADQYLLEGLKRLCEYTIAQDITLESIGDMYELSEAFHAMSLRQACIMFILEHFDKLSSMPWQNELVQRTIPEIREYFCRALTKSTTNLQSLRL
Take B8: the binding result is given as “binds”.

B9: N-terminal region of ABAP1 including the armadillo domains (aa 1-400) (domain or fragment, UniProt B7U179 1-400)
chain: MIISKSFKAPLKFSVKSSTAPVISNHPPMENHPKRQRTTRLAARNLKRKLSHNTDGAPIVTQLIDIDDEPIDLVVAIRRHVEVLNSSFSDPDFDHEAVKEAAADIADLAKIDENVEIIVENGAIPALVRYLESPLVVCGNVPKSCEHKLEKDCALALGLIAAIQPGYQQLIVDAGAIVPTVKLLKRRGECGECMFANAVIRRAADIITNIAHDNPRIKTNIRVEGGIAPLVELLNFPDVKVQRAAAGALRTVSFRNDENKSQIVELNALPTLVLMLQSQDSTVHGEAIGAIGNLVHSSPDIKKEVIRAGALQPVIGLLSSTCLETQREAALLIGQFAAPDSDCKVHIAQRGAITPLIKMLESSDEQVVEMSAFALGRLAQDAHNQAGIAHRGGIISLLNL
For B9, the binding result is recorded as “binds”.

Source of the values: PMC4634149.
